# Read-outs that look alike come from different tables or passages of the source.
# Tested on: Isolated Langendorff perfused hearts
# Design: dose or concentration left out as unconfirmed
smiles,measurement,setting,value
"O=C(O)CCC(=O)C(=O)O [α-KG, α-ketoglutarate]",Rate pressure product (RPP) recovery,after 5 minutes of reperfusion,about 70%
same,Rate pressure product (RPP) recovery,after 30 minutes of reperfusion,about 80%
same,left ventricle developed pressure (LVDP) compared to control,in KH buffer during 60 minutes reperfusion after 30 minutes ischemia,much higher
